# Laboratory results as given in PubChem BioAssay AID662 (National Center for Advancing Translational Sciences (NCATS), 2007).
# Hit rate of the full screen: of about 71,000 compounds, about 1,800 (2.5%) were called active. The inconclusive results got no clear call from the source; some entries with a clear call stand among them for comparison. The call rests on the fitted dose curve; in most records, active means well fitted activation curve with a large enough effect in the signal ratio, with a control signal flat (not every such curve was filed as active); inconclusive means small, poorly fitted or top-dose-only effect, or effect the other way, or a change in a side signal; inactive means flat fitted curve, though single readings scatter; the % refers to the signal ratio. Potencies of inconclusive entries are doubtful fits and often do not repeat. Numbered stars: 1 amine (or outer) side, 2 acyl side, 3 side chain; on linkers, the order of the positions; unused ones are H or OH. Bridge positions count the residues as written; N and C are the ends. Square brackets hold non-standard residues; d marks the D form. Peptide text beside a SMILES is read from it. I, II: the chains in the order shown. Actinocin(9to1) = Cc1c2oc3c(C)ccc(C(=O)[*:1])c3nc-2c(C(=O)[*:2])c(N)c1=O; aThr = C[C@H](O)[C@H](N)C(=O)O; NMeV = CN[C@H](C(=O)O)C(C)C; Sar = CNCC(=O)O
# Assay: Cell signaling CRE-BLA (Fsk stim); on activity change, negative = inhibition: % of control where 0% means no effect
# Settings: CHO CRE-bla reporter (cAMP response element driving beta-lactamase), forskolin EC10, beta-lactamase ratio; activity change, negative = inhibition: at 38.2 µM (top of the series) unless noted
# Procedure, shortened: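 Using CellSensor CRE-bla CHO cells in Opti-MEM with 0.5% dialyzed FBS, compounds were titrated with EC10 NKH 477 for 3 h at 37 °C. CCF4 ratio (460/530 nm) gave %Activity; AC50 derived.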
# Potency means the concentration at half of the fitted maximal effect; tags describe the fitted curve by direction and shape.
SMILES,"activity change, negative = inhibition",Potency
O=C(Nc1cccnc1)c1noc2c1CCCC2,inconclusive: 15.6%,
O=c1cnc2cnc(OCc3ccccc3)nc2n1CCc1ccccc1,,"inconclusive: 25.1 µM [rising, single point]"
COC(=O)[C@H](CC(C)C)NC(=O)Nc1ccc2c(c1)OCCO2,inactive: -3.22%,
O=P(O)(O)O[C@@H]1O[C@H](CO)[C@@H](O)[C@H](O)[C@@H]1O,inactive: -8.7% [at 7.6 µM],
CC(=O)Nc1nonc1-c1nc2ccccc2n1CC1CC1,inactive: 4.6%,
CCN1CCCC1CN=Cc1c(O)n(-c2ccccc2)c(=O)c2ccccc12 (configuration not stated),,"inconclusive: 10 µM [rising, single point]"
CN1c2ccccc2-c2nc3ccccc3n2C1c1ccncc1 (configuration not stated),,"inconclusive: 12.6 µM [rising, partial curve]"
CCc1ccc(NS(=O)(=O)c2ccc3[nH]cc(C(=O)NCC4CCCO4)c(=O)c3c2)cc1 (configuration not stated),,"inconclusive: 0.0794 µM [falling, full curve, poor fit]"
CCOC(=O)c1sc(=S)n(C)c1N,inconclusive: 24.8%,
CN1CCN(c2nc(N3CCN(c4ccccc4)CC3)ncc2F)CC1,inactive: 16.3%,
Cc1noc(/C=C/N(C)C)c1S(=O)(=O)N(C)CC(=O)N1CCc2ccccc21,inconclusive: 17.8%,
Cc1cc(SCC(=O)c2ccccc2)nc2ccccc12,inactive: 3.76% [at 7.6 µM],
Cc1c(O)ccc2c3c(c(=O)oc12)CCC(C)C3 (configuration not stated),,active: 3.16 µM
COc1ccc(C(=O)NCc2cn3c(C)csc3n2)cc1OC,,"inconclusive: 10 µM [rising, single point]"
COc1ccc(OC)c2c(=S)c3ccccc3[nH]c12,,active: 20 µM
CCOc1ccccc1NC1c2ccccc2C(=O)N1c1cccnc1 (configuration not stated),inconclusive: -5.32%,
Cc1cc(NC(=O)CCN2C(=O)C3C4C=CC(C4)C3C2=O)c2ccccc2n1 (configuration not stated),inconclusive: -7.2%,
Cc1ccc2c(c1)N(CC(=O)N1CCN(c3nc4ccccc4s3)CC1)C(=O)C(C)O2 (configuration not stated),inactive: 0.512%,
Cc1csc(C(C#N)C(=O)c2cc3ccccc3o2)n1 (configuration not stated),inactive: -3.48%,
"Cc1c2oc3c(C)ccc(C(=O)N[C@@H]4C(=O)N[C@@H](C(C)C)C(=O)N5CCC[C@@H]5C(=O)N(C)CC(=O)N(C)[C@@H](C(C)C)C(=O)O[C@H]4C)c3nc-2c(C(=O)N[C@@H]2C(=O)N[C@@H](C(C)C)C(=O)N3CCC[C@@H]3C(=O)N(C)CC(=O)N(C)[C@@H](C(C)C)C(=O)O[C@H]2C)c(N)c1=O (I: [aThr]V[dP][Sar][NMeV] / II: [aThr]V[dP][Sar][NMeV]; ester I:1-I:C, II:1-II:C; linker I:N-II:N via Actinocin(9to1))",,"inconclusive: 0.1 µM [falling, full curve]"
CCc1ccc(NC(=O)CSc2nnc(Cc3cccn3C)n2-c2ccc(OC)cc2)cc1,inconclusive: -11.1%,
CC(=O)OCCOc1nc(N(C)C)nc(N(C)C)n1,inactive: 10.5%,
Cc1c(C(=O)O)[nH]c2c1C(=O)CC(c1ccccc1)C2 (configuration not stated),,"inconclusive: 10 µM [rising, partial curve]"
CCc1ccc(NC(=O)Cn2c(SC)nc3ccccc32)cc1,inconclusive: -12.8%,

SMILES,"activity change, negative = inhibition",Potency
O=C(c1ccccc1)c1nc[nH]c1C(=O)Nc1ccccc1,,active: 10 µM
CC(C)OC(=O)c1cccnc1SCc1cc(=O)n2ccccc2n1,,"inconclusive: 10 µM [rising, partial curve]"
C[N@+]1(CCC(=O)c2ccccc2)CC[C@H]2CC[C@H](C2)C1,inactive: -5.23% [at 7.6 µM],
COC(C)(C)[C@]12CC(O)(C(C)C)ON1[C@H]1CCCCC1N2O (some centres not stated),inconclusive: -27%,
CCC(C)n1nccc1NC(=O)C(C)OC(=O)c1cc2ccccc2[nH]1 (configuration not stated),,"inconclusive: 3.98 µM [falling, single point]"
CCOC(=O)N1CCC(N2CC34C=CC(O3)C(C(=O)Nc3ccc(OCC)cc3)C4C2=O)CC1 (configuration not stated),inconclusive: 22.5%,
c1coc(-c2nnc(SCc3nc4ccccc4[nH]3)o2)c1,,"inconclusive: 7.94 µM [rising, partial curve]"
CC(=O)Nc1cccc(Oc2ccc3c(c2)C(=O)N(CCC(=O)O)C3=O)c1,inactive: -3.18%,
COC(=O)c1ccccc1NC(=O)COC(C)=O,inconclusive: 8.47%,
NCCC[C@@H](CC(=O)N[C@@H]1CCCC[C@H]1C(=O)N[C@H](CC(=O)N[C@@H](CCC(=O)O)CC(=O)O)Cc1c[nH]c2ccccc12)NC(=O)C[C@H](Cc1ccccc1)NC(=O)[C@@H]1CCCC[C@H]1N,inactive: -20.3%,
O=c1[nH]c2ccsc2c(=O)n1-c1ccc(F)cc1,inconclusive: 20.9%,
CCOC(=O)C1=C(C)N=c2s/c(=C\c3cccn3C)c(=O)n2C1c1cccc(OC)c1OC (configuration not stated),inactive: 3.94%,
Cc1ccc(-n2ncc(C#N)c2/N=C/N2CCOCC2)cc1,,"inconclusive: 6.31 µM [rising, partial curve]"
CCCOc1ccc(N2C(=O)CC(N3CCCC(C(=O)N4CCCC4)C3)C2=O)cc1 (configuration not stated),inconclusive: -7.43%,
CC(=O)[C@@]1(O)CC[C@H]2[C@H]3C[C@@H](C)C4=CC(=O)C=C[C@]4(C)[C@@]3(F)[C@@H](O)C[C@]21C,inactive: 3.7% [at 17.1 µM],
Cc1nnc(NC(=O)C2(c3ccccc3)CCOCC2)s1,,active: 10 µM
CCOc1ccc(C2=Nn3c(nnc3-c3ccccc3)SC2)cc1Cl,,active: 0.0794 µM
CC(=O)[C@H](C(=N)C#N)C(=O)Nc1ccccc1,inactive: -0.949% [at 7.6 µM],
CN(C(=O)CSc1nnnn1-c1ccccc1)C1CCCCC1,,"inconclusive: 5.01 µM [falling, single point]"
CCCc1ccc(C(C)NC(=O)c2cnccn2)cc1 (configuration not stated),inconclusive: -8.64%,
CC1Oc2ccccc2N(CC(=O)NCc2cccs2)C1=O (configuration not stated),inactive: 0.303%,
O=S(=O)(c1ccc(Br)cc1)N1CCN(S(=O)(=O)c2ccc(Br)cc2)CC1,inactive: -7.7% [at 7.6 µM],
Cn1c(=O)c2c(nc(NCc3ccco3)n2C)n(C)c1=O,,"inconclusive: 12.6 µM [rising, single point]"
